In the supplement of paper PMC3334620:
Whole data set: some 33,000 sequences, median “E-score (-0.5 to 0.5)” near -0.041, cut for the highest 2% near 0.37. The list shows a part of the results.

These sequences were tested against T1, Ecm22 (UniProt Q05958) (assay: PBM E-score (8-mer binding enrichment) (E-score (-0.5 to 0.5)); higher = stronger / more preferred TF binding; most listed sequences are background and not binding sites). Details: protein concentration: 200 nM; construct: GST-full length.
T1 sequence: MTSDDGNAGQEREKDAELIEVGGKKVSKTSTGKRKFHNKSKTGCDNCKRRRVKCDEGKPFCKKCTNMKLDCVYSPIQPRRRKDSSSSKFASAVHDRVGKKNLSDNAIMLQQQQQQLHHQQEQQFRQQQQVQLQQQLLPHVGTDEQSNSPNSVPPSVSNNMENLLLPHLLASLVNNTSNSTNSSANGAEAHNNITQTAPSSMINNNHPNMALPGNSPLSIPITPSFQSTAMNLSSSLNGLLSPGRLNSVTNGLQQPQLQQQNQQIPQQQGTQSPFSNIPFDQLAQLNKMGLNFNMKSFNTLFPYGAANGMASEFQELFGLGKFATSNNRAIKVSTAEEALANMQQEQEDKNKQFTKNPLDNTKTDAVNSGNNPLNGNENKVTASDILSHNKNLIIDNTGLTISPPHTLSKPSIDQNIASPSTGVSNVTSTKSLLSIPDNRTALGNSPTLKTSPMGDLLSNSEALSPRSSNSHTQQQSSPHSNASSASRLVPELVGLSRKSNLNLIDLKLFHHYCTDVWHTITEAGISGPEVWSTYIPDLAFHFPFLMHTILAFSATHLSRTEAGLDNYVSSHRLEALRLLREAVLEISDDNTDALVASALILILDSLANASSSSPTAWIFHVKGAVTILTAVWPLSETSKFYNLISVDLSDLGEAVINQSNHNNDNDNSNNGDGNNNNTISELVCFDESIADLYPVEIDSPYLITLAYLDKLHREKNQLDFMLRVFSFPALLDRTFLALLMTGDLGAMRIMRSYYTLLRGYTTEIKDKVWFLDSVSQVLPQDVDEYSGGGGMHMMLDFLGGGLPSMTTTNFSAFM
Procedure: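 Universal 'all 10-mer' protein binding microarrays (Agilent AMADID 015681) probed with GST-tagged S. cerevisiae TFs (full-length or DBD) made by in vitro transcription/translation (PURExpress), about 100-200 nM. Bound TF was detected with fluorescent anti-GST. Each ungapped 8-mer (which stands for itself and its reverse complement) is scored by the PBM enrichment score (E-score), a modified Wilcoxon-Mann-Whitney statistic from -0.5 to +0.5, computed with the Universal PBM Analysis Suite. Scale: above 0.35 generally sequence-specific binding.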

Sequence	PBM E-score
CTGCGCAG	0.0545
CCATGCCC	-0.265
ACTTGTTA	-0.185
ACCCGCAA	-0.158
CGAACCTA	0.00754
ATTATAAC	-0.0721
CTGGGCCA	-0.357
AGTGGCAC	-0.164
CGGTAACC	0.091
ACCGCTCC	0.166
AACAGTCA	-0.192
ACAGTCAT	-0.181
ATGAAGAG	-0.104
GTTCAAAC	0.122
ATGACTCA	-0.0714
CTTCGAAA	0.0207
AAGTGAGG	-0.0564
CAAGAATA	-0.0556
ATCTACGC	0.146
TGGTAGAA	-0.203
TAAAAGAA	0.0634
CAGGCGGG	-0.161
CCCTACCG	-0.162
CATACTGC	0.00327
CTTCGATC	0.0857

Sequence	PBM E-score
TGCACACA	0.0025
CATGGCCG	-0.123
CACAACGG	-0.0014
ATGGAAGG	-0.299
GATCCGTA	0.284
CCTTGAGC	-0.247
GAACCTGC	0.102
AAGCCGTC	-0.0956
ACTGTCAT	-0.073
AGATTTAC	-0.0302
GGAGAGAA	-0.148
AAACAGGC	-0.33
AAGAACAA	-0.0038
ATGGTACC	-0.225
ATGGTCTG	-0.0872
CATTCGAA	0.113
ATTCGTTG	0.277
GATGGGAC	0.00494
GATGTAAC	-0.0826
AAACGGGC	0.32
TCACTCAA	-0.219
GCTTACCC	-0.0492
AAGTATGC	-0.0374
ATATTTCG	0.267
GCTTAATA	0.0328

Sequence	PBM E-score
ATGCCGTC	0.0463
AAAGCTCC	-0.253
AACACTCC	-0.116
CTCCGACC	-0.0576
AACGGGTG	0.245
CCCCGGCG	-0.141
ACCCGCTG	-0.25
CAACTCCG	-0.108
AGCTAAGC	-0.0756
AACGTAGA	0.134
CTCTTGCC	-0.206
ATCCGCAA	0.0725
CCTGCCAC	-0.332
TCCGACAA	0.121
CTTTTCGC	0.125
TCAAAACA	-0.0331
ATGCTCTA	-0.131
AATTTGTC	-0.0119
CGGGTGAG	-0.18
TATAAGAA	-0.0447
GAATGAAA	0.0272
CTTATAAG	-0.0404
CGGTGTCA	-0.0844
ACTAGATG	-0.0195
CCTTGTAG	-0.188

Sequence	PBM E-score
ATTCGGAG	-0.00698
GGGCCCGA	-0.0195
CATAATGA	-0.119
GAAGTCAC	-0.252
ATTGTGCA	-0.11
CTCTCAAG	-0.153
CTCCCCCC	-0.232
TATTTACA	-0.0168
ATCGACTG	0.076
AGCTCTTC	0.013
CAGCAACA	-0.0467
ATCAATCG	0.0988
CCGGGCAC	-0.0464
AGGCACCC	-0.308
CGATGGTC	-0.0239
AGGTGATA	-0.177
AGCTTAGA	-0.118
CGTCAACA	-0.18
CAAGAGTG	-0.109
AGCTTACT	-0.211
TACGAAGA	0.444
AAGGCAGC	-0.24
ACATATTG	-0.0107
CACCCGGG	-0.134
CCAGAAAG	-0.00612

Sequence	PBM E-score
CGGGAGCC	0.00532
CCTGTCCG	-0.00504
CATATGCA	0.148
CCTGCTTC	-0.126
GTGCAAAC	0.133
GGAAGGCC	-0.21
ACCCAAAG	-0.263
GTGTAGCA	-0.251
GCAACTGC	0.126
CCAGAGAA	0.0432
ACTTGGGG	-0.237
AATGCCCA	-0.278
GCCCATTA	0.0743
ATCTCGGC	0.0673
GACAAACC	-0.0829
CAAAAAAC	-0.0428
ACAATAAG	-0.058
CGTTCCAG	0.418
TACAGAGA	-0.076
ACGCCCCA	0.128
CTTCTTGC	0.0469
GGGAAGCA	-0.151
ACACTGGC	-0.0328
CGCCAGCC	0.00328
CGGCGGAC	-0.00158

Sequence	PBM E-score
CCTTCTAC	-0.216
AAGACAAT	-0.15
AATGTACG	0.331
AGTATAGA	0.16
ACAGTTCC	-0.0566
CGCGGCCG	0.0345
GTGCTTCA	-0.049
CGTAGTGC	-0.115
CGAGAACA	0.236
GATATGCC	-0.108
CCGCACCA	-0.0313
CCGTGGTC	-0.121
GGAAGCCA	-0.347
CAGATAGA	-0.0618
CCGAGCAA	0.161
CCGGGAGA	-0.251
CCCCAGTA	-0.21
GTCTTAAC	-0.2
CAATTTAC	-0.0289
CCGAAACG	0.288
ATAGGCTC	-0.0784
CCAAGAGC	-0.244
GCCCACGC	-0.0186
ACGGGTGA	0.0822
CGTCTTCA	0.036

Sequence	PBM E-score
CATAATTC	-0.0931
AAATGTAC	0.129
ACGAGTCA	0.219
AGTGATCC	-0.0289
TAAACTAA	0.179
CGAAGAAA	0.194
GATCCACA	-0.13
AAATTCCG	0.162
TGCCGGAA	0.0207
GCTGTTTA	0.0148
ACACTATC	0.0198
GACGACTA	-0.121
TCACACCA	-0.0594
CCTCTCCA	-0.377
CAGAATGC	-0.288
AGCCGGTC	-0.124
TCAATGAA	0.0511
AGACATAG	-0.00453
AGCGGCTA	-0.112
ATTGCGCC	-0.0536
CGAACATA	0.164
CTATGTGA	-0.0746
AGGTTAGC	-0.23
AGAACACA	-0.102
CAGTCAAG	-0.215

Sequence	PBM E-score
TAGACCAA	-0.0485
GCACCTAC	-0.22
GGATCCCA	-0.245
CAGTGATG	0.0632
AAAAAATC	-0.121
CCGCTGAG	-0.201
GGGGGGAC	-0.239
ACTTGGAC	0.0207
ACCTTCTC	-0.116
ACCTGCCG	-0.0119
CCTCGTAG	0.41
GTACTTGA	0.162
CGCGGCAA	0.0294
ACTACATG	-0.00827
ATTTCATA	0.096
GTCAGGCA	-0.248
ACAAAGAG	-0.168
CAGTCGGC	-0.0234
ATCTACGG	0.0128
CGGATACG	0.386
AGCTCACT	-0.0849
CCAGCCAA	0.00593
AGTTCGTG	0.189
CGTTGCTA	0.255
CGTGTTGA	0.0153

Sequence	PBM E-score
CTTAACGA	0.432
AGCTATCG	0.0664
CTTGTACC	-0.0121
GCTTTCCC	-0.0311
CGGGTGTA	0.0956
TACAGCGA	0.0353
ATTCAATG	0.0511
AAATGGCT	-0.142
AAGGTTAC	-0.0361
ACTACTAC	0.0779
ATCGTCTC	-0.0584
TGCATGCA	-0.0613
AGCTCGTA	0.477
CGTGGCAC	-0.0347
GAATCCTC	0.0415
CCCAGCTC	-0.143
CAGAGTCC	-0.0964
CCCTAGCC	-0.104
ACGTACAA	0.298
CTTTAGGC	-0.0762
GCCCGGCA	-0.143
ATGGGAGG	-0.116
CTCAACGA	0.247
ATGACGCA	0.104
ACGGGTAC	0.322

Sequence	PBM E-score
CTATTACC	-0.00657
AAGTAGAG	-0.111
GGGCTGAC	-0.0438
TAAAATGA	0.0102
CCAGTGGC	-0.265
AAGGTCGG	-0.0761
AATAAGTG	-0.202
AGCTTCTA	-0.0747
CCCACTAA	-0.266
ACACATCT	-0.148
TACCAGAA	-0.0181
AGAAATGA	-0.114
ATGACCCC	-0.184
ACCGACTC	0.151
CGTTCGAC	0.144
CCGCCCTC	0.0333
GCACTAGC	-0.024
GACCAATA	0.00608
AGTGCCAT	-0.0805
GGCTGCTA	-0.0878
CCGTCGGA	0.0756
ACCATGCT	0.0187
CAAGTTTC	-0.0495
CTAGCTGC	-0.221
GACTGACC	-0.0963

Sequence	PBM E-score
ACCCACAA	0.105
AGAGCAGC	-0.0555
TCCATTCA	-0.0027
CAACTCGG	0.0345
ATACGTCA	0.182
AGCGGTCG	-0.0139
AAACTTGC	0.113
ATGTTCTA	-0.0632
ACCTCCCA	-0.194
AAGGCATT	-0.328
CCTTATTA	0.0274
CAGGACTC	-0.106
AAAGGTGT	-0.0768
AATTGACT	-0.272
ACCCACTC	-0.107
CCCCAGAG	-0.289
ACCAGCCA	-0.137
ATCGGCCA	-0.0721
CACGTACC	0.285
CGTGTCAC	0.0943
GACGACGC	0.145
CGGGCATC	0.0286
CGGAAGTA	0.0282
GATAATAA	-0.0253
CCCCACCG	0.0384

Sequence	PBM E-score
GATATTGC	-0.0449
AGGTGCCG	-0.0793
GCCGAAGC	-0.111
CCGTAGAG	0.189
ATGCCCAG	-0.397
CAGTAAGC	-0.0124
CGCTAAAC	0.294
GTTCACCA	0.0888
AATTCATC	-0.148
AATGAGCA	-0.253
AGCCCCAG	-0.153
CGTTCTTC	0.332
GCGAAGAC	0.101
GAAAACCC	-0.0576
ATGTCCAA	-0.0118
TATGCTCA	-0.129
TGCGTAAA	0.228
CCTTGCAA	-0.0998
GCTGTGAA	-0.0356
ACGGGAGA	0.0694
ATTCAAAC	0.13
ACAGGTTA	-0.161
CCCAACCA	0.0792
AGTAGTCG	0.238
AGGAGTAC	-0.0263

Sequence	PBM E-score
CACCATTC	-0.235
ACCAATGA	-0.061
AATTTTAT	0.0365
AGTCCGAA	0.0505
ATAGTTGG	-0.0165
ACCGGGAC	-0.23
GTGACGAA	0.0112
CCCAAGGG	-0.233
AATAAGAG	0.084
ACGTCAGT	-0.0686
GACGTATA	0.365
CACGCCAA	-0.0565
ATAAAAGC	-0.14
TTACCAAA	-0.0993
AGTGGTTC	-0.113
GATGAGGC	-0.197
CCTGTACG	0.4
AGTGTCGG	0.0128
CACGTCGG	0.227
CAATCGGA	0.00797
AGAAAAGG	-0.249
ATAAACGG	0.408
TACATACA	0.111
GATGATAC	0.136
GCTAATAA	0.164

Sequence	PBM E-score
CAGGCAGG	-0.155
AATCGTCA	-0.00811
GCCCGCGC	0.0265
CACCCCTG	-0.329
ACCGTAGG	-0.172
CGCGTTAA	0.185
CGGCGACG	0.0233
CCTATCCG	0.17
AATCGTGA	-0.152
GGGAGATA	-0.114
CGAACACA	0.12
AGAGAATC	-0.16
CCGATCGC	0.109
AGTATGAT	0.101
TCATCGAA	-0.0125
CGCGGTTA	-0.0243
ACGTTTTG	-0.102
GTCTAAAA	-0.00822
CCGGTGAG	-0.158
